# Reference: PubChem BioAssay AID485344 (National Center for Advancing Translational Sciences (NCATS), 2010)
# Among all 340,000 compounds or so, about 6,900 (2%) were called active. Rule as the data show it: active = inhibition above about 30%; inactive = below that, where a call was filed. The entries are a selection whose mix differs from that of the whole data set. Entries without a call were filed so in the source.
# Target: D(2) dopamine receptor (Homo sapiens) (UniProt P14416)
# Assay: HTS Assay for Allosteric Antagonists of the Human D2 Dopamine Receptor: Primary Screen for Antagonists; also: 0% is about no effect
# Details: HEK293 TREx D2 cells, calcium flux, dopamine EC80; at 10 µM; stronger effect = higher value
# Method in brief: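 Tetracycline-induced HEK293 TREx cells expressing D2 receptor forced-coupled to calcium signalling, loaded with no-wash calcium dye. Compounds added and calcium flux read 180 s, then dopamine added at EC80 and read a further 180 s.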
# Sequence of UniProt P14416 (P14416 whole entry, looked up): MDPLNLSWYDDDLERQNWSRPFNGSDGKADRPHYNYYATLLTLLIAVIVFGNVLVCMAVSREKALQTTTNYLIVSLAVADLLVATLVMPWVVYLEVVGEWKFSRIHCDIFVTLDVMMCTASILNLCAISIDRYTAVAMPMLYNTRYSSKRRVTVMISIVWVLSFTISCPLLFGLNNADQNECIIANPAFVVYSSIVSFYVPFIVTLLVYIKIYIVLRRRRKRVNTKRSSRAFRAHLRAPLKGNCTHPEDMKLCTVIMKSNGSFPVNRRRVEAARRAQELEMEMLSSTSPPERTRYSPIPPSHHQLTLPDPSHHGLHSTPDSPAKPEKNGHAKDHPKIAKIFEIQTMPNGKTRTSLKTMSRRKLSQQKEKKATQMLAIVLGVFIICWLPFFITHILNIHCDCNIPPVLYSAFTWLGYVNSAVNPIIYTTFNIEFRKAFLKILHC
row,Structure (SMILES),inhibition
1,Fc1ccc(-n2ncc3c(Nc4ccc(Oc5ccccc5)cc4)ncnc32)cc1,-12.9%
2,Cc1ccc(OCC(=O)Nc2c(Cl)ccc3nsnc23)cc1C,10.8%
3,COc1cccc(C(=O)NC(c2ccc(Cl)cc2)c2cc(Cl)c3cccnc3c2O)c1 (stereo not given),8.58%
4,CCc1ccccc1NC(=S)N(CCN1CCOCC1)C1CCN(C(C)=O)CC1,active: 30.9%
5,CCn1cc(C(=O)NCc2ccc(Cl)cc2)c(=O)c2cc(S(=O)(=O)N(C)C)ccc21,active: 32.1%
6,FC(F)(F)c1ccc(C2=Nc3ccccc3NC(c3cccs3)=N2)cc1,-4.29%
7,COc1ccc(Nc2ncc(C(=O)Nc3cc(C)ccc3OC)c3ccccc23)cc1,17.2%
8,O=C(COc1ccc(F)cc1)Nc1cccc(OCc2cc(=O)n3ccccc3n2)c1,6.5%
9,Cc1ccc(-n2nc(C)c3c(C)cc(=O)n(CC(=O)NCc4ccc(OC(C)C)cc4)c32)cc1,-9.6%
10,N#Cc1ccccc1Cn1c(=O)n(-c2ccc(F)c(Cl)c2)c(=O)c2sccc21,13.2%
11,COc1ccc(CC(=O)NCCc2csc(-c3cccc(F)c3)n2)cc1OC,-15.8%
12,Cc1ccc(C)c(NC(=O)Cn2c(=O)n(Cc3ccco3)c(=O)c3ccc(C(=O)NC4CCCC4)cc32)c1,10.9%
13,O=C(C1CCN(c2ncnc3c2nc2n3CCCCC2)CC1)N1CCN(c2ccccc2)CC1,-10.7%
14,Cc1ccc(S(=O)(=O)Nc2cc3c(C(=O)OCc4ccccc4)c(C)oc3c3ccccc23)cc1,26.4%
15,O=C(C1=C(Nc2ccccc2)c2ccccc2S(=O)(=O)N1)c1ccccc1,active: 39.7%
16,COc1cccc(NC(=O)Cn2c(=O)n(C)c(=O)c3sc4c(c32)COC(C)(C)C4)c1,active: 42.9%
17,CCOC(=O)c1ccccc1NC(=O)c1sc2ncn(CC)c(=O)c2c1C,1.05%
18,Cc1cc(C)cc(OCC(=O)NCC2(N3CCOCC3)CCCCC2)c1,-4.37%
19,O=C(Cn1c(SCCOc2ccccc2Cl)nc2ccccc21)N1CCCCC1,0.747%
20,CC(=O)c1cccc(NC(=O)c2ccc(-c3ccccc3[N+](=O)[O-])o2)c1,active: 32.8%
21,COc1ccc(N2CCN(C(=O)c3nn(C)c4c3CSc3ccccc3-4)CC2)cc1,12.5%
22,CCc1ccc(C(=O)c2cn(CC(=O)Nc3ccc(OC)c(Cl)c3)c3nc(C)ccc3c2=O)cc1,3.43%
23,Cc1sc2nc(CSCC(=O)Nc3c(Cl)cccc3Cl)[nH]c(=O)c2c1C,active: 43.2%
24,CCCN(C(=O)NCc1noc2ccc(C)cc12)c1ccc(Cl)c(Cl)c1,6.83%

row,Structure (SMILES),inhibition
1,CC1=C(C(=O)Nc2cccc(C(F)(F)F)c2)C(c2ccccn2)n2ncnc2N1 (stereo not given),13.8%
2,CCC(=O)Nc1ccccc1-c1nc2ccccc2n(CC(=O)c2ccc(Br)cc2)c1=O,2.02%
3,Cc1ccc(Cl)cc1NC(=O)Cn1cc(S(=O)(=O)Cc2ccccc2Cl)c2ccccc21,3.12%
4,COc1cccc(-c2nc(CS(=O)(=O)CC(=O)NCCCc3ccccc3)c(C)o2)c1,-25.9%
5,Cc1ccc(S(=O)(=O)N2CCCc3cc(NC(=O)c4ccc(C(C)(C)C)cc4)ccc32)cc1,3.76%
6,CCN(CC)c1ccc(NC(=O)c2sc3nc(-c4ccccc4)cn3c2C)cc1,-19.3%
7,CCOC(=O)c1cccc(NC(=O)NCc2ccc3c(c2)CCN3C(=O)CC)c1,2.13%
8,CCCn1c2ccccc2c2cnn(CC(=O)NCCc3cc(OC)ccc3OC)c(=O)c21,-9.92%
9,Cc1nc(-c2ccc(F)cc2)sc1CCNC(=O)C(=O)Nc1ccc2c(c1)OCO2,2.75%
10,CC(=O)c1cc(-c2ccc(F)cc2)n(CC(=O)NCc2ccc(C)cc2)c1C,5.75%
11,Cc1cc(C)c(OCC(=O)Nc2cccc(-c3nc4ncccc4o3)c2)c(Br)c1,14.8%
12,CC1CCN(S(=O)(=O)c2ccc3nc(N4CCN(c5ccccc5)CC4)ccc3c2)CC1,2.81%
13,Oc1c(C(c2ccc(Cl)cc2)N2CCOCC2)sc2nc(-c3ccco3)nn12 (stereo not given),9.64%
14,COc1cccc([C@H]2Nc3ccc(S(=O)(=O)Nc4cc(C)ccc4C)cc3[C@H]3C=CC[C@H]32)c1,-15.1%
15,COc1ccccc1OCC(=O)Nc1cc(-c2ccc(C)cc2)no1,6.31%
16,Fc1cccc(CSc2nc(NCCc3ccccc3)c3ccccc3n2)c1,-9.48%
17,COc1ccc(CCNC(=O)Cn2c(-c3cccs3)cc3cc(F)ccc32)cc1OC,-1.21%
18,COc1ccc(C2=C(N3CCN(c4cc(Cl)ccc4C)CC3)c3ccccc3C2=O)cc1,-2.97%
19,COc1ccc(NC(=O)c2oc3ccccc3c2NC(=O)c2cc(OC)c(OC)c(OC)c2)cc1,10.1%
20,COc1cccc(CNC(=O)c2ccc(CS(=O)c3ccccc3)o2)c1 (stereo not given),-18.5%
21,COc1ccc(CCNC(=O)CN2C(=O)COc3ccccc32)cc1OC,-22.4%
22,Cc1cccc(Oc2nc3c(c(=O)n(C)c(=O)n3C)n2C)c1C,-4.28%
23,N#Cc1c(-c2ccccc2)cc(-c2ccccc2)nc1SCC(=O)Nc1ccc(Cl)cc1,7.86%
24,Cc1ccccc1-c1nn2c(=O)cc(CN3CCN(C(=O)c4ccccc4Br)CC3)nc2s1,-7.31%

row,Structure (SMILES),inhibition
1,CCOC(=O)N1CCN(C(=O)c2cnn(-c3cccc(F)c3)c2-n2cccc2)CC1,-0.753%
2,CCc1ccccc1NC(=O)C(CCSC)NS(=O)(=O)c1ccc2c(c1)oc(=O)n2C (stereo not given),0.915%
3,COc1cc(Cl)c(C)cc1NC(=O)NC1COc2ccccc2C1 (stereo not given),5.96%
4,CCCNC(=O)Cn1c(=O)cc(C)c2c(C)nn(-c3cccc(F)c3)c21,-5.06%
5,COc1cc2nc(SCc3ccc(F)cc3)n3nc(CCn4c(C)nc5ccccc54)nc3c2cc1OC,3.6%
6,COc1ccc(CNC(=S)Nc2ccc(F)c(Cl)c2)cc1,active: 68.2%
7,CCOc1ccc(S(=O)(=O)N(CC(=O)NCCSCc2ccccc2)c2ccccc2)cc1,-4.43%
8,CCOc1ccccc1NC(=O)N1CCN(Cc2cc(=O)n3nc(-c4ccc(C)cc4)sc3n2)CC1,-0.919%
9,C[C@@H]1CC2OC(=O)[C@@]3(C)C(=O)CC[C@@](C)(C23)[C@@]1(O)CCc1ccoc1 (stereo not given in full),active: 30.1%
10,COc1ccc(S(=O)(=O)N2CCCCCC2)cc1C(=O)N(C)Cc1ccc(Cl)cc1Cl,active: 46.9%
11,CCOC(=O)c1ccccc1NC(=O)CSc1ncc2c(n1)-c1ccccc1N(CC)S2(=O)=O,11.5%
12,Cc1nn(C)c2c1c(-c1ccccc1)cc(=O)n2CC(=O)NC(C)(C)C,16.4%
13,CCC(C)n1c(=N)c(S(=O)(=O)c2ccccc2)cc2c(=O)n3ccccc3nc21 (stereo not given),13.5%
14,CCN(CC)S(=O)(=O)c1cccc(NC(=O)COC(=O)C2=COCCO2)c1,active: 30.5%
15,CCCOc1ccc(C(=O)NNC(=S)NC(=O)CC)cc1,active: 72.4%
16,CCC(=O)Nc1cccc(-c2cn3c(C)csc3n2)c1,0.519%
17,O=C(CCC1N=C2c3ccccc3N=C(SCc3cccc(Cl)c3)N2C1=O)NCc1cccs1 (stereo not given),-13.7%
18,COc1cccc(C(=O)N(Cc2cccc(Cl)c2)Cc2ccco2)c1,1.43%
19,CC(C)(C)c1ccc(OCC(=O)Nc2c(C(=O)c3ccc(F)cc3)oc3ccccc23)cc1,0.458%
20,COc1cc(C(=O)NCCSc2c(-c3ccccc3)[nH]c3ccccc23)cc(OC)c1OC,3.15%
21,CSc1cccc(NC(=O)c2ccc3c(c2)c(C)c(C)n3Cc2ccc(F)cc2)c1,4.62%
22,CCc1ccc(S(=O)(=O)c2cn(C)c3cc(N4CCN(CC)CC4)c(F)cc3c2=O)cc1,2.12%
23,COc1ccc(CCCc2nnc(SCC(=O)Nc3ccc(C)c(C)c3)o2)cc1,2.63%
24,Cc1cc(C)c2c(CC(=O)Nc3nnc(CC(C)C)s3)coc2c1,-20.7%

row,Structure (SMILES),inhibition
1,CC(C)NS(=O)(=O)c1ccc(OCC(=O)N2CCN(c3ccccc3F)CC2)cc1,0.291%
2,CN(C)CCN(Cc1ccc(Cl)cc1)c1ccccn1,active: 59.1%
3,O=C(c1ccc(CS(=O)c2ccccc2Cl)o1)N1CCN(c2ccccc2F)CC1 (stereo not given),8.66%
4,COc1ccccc1-c1c(C)nn2c(C(F)(F)F)cc(-c3ccccc3)nc12,-3.54%
5,O=C(O)CCS(=O)(=O)c1cccc2cccnc12,active: 31%
6,Fc1ccc(C2=NC(c3cccc(C(F)(F)F)c3)=Nc3ccccc3N2)cc1,-13.2%
7,CCC(=O)N1CCc2cc(S(=O)(=O)CCC(=O)N(C)c3ccc(OC)cc3)ccc21,5.44%
8,O=C(Nc1ccccc1C(=O)OCc1cc(=O)n2ccsc2n1)c1cccc(F)c1,-17.2%
9,Cc1cc(Nc2cccc(Cl)c2)nc2ccc(NC(=O)c3ccc(F)cc3Cl)cc12,-6.63%
10,COC(=O)c1c(NC(=O)CCCOc2ccccc2)sc2c1CCC(C)C2 (stereo not given),21%
11,Fc1cccc(CN2CCN(c3ncccn3)CC2)c1,active: 82.8%
12,Cc1cc(C)n2nc(C(=O)Nc3c(C)nn(Cc4ccc(F)cc4)c3C)cc2n1,active: 51.5%
13,CC(NCC(O)c1ccc([N+](=O)[O-])cc1)C12CC3CC(CC(C3)C1)C2 (stereo not given),active: 38.2%
14,O=C(NCCc1ccccc1)c1cc(-c2ccccc2)nc2n[nH]c(-c3ccccc3)c12,-15.4%
15,O=C(NCc1ccc(F)cc1)c1cccc(N2CCCS2(=O)=O)c1,11.2%
16,Cc1ccc(-c2cc(C(=O)NCCc3ccccc3)c3ccccc3n2)cc1C,15.2%
17,Cc1ccccc1NC(=O)Cn1c(=O)n(Cc2ccco2)c(=O)c2cccnc21,-10.8%
18,CN(C)c1ccc(/C=C(\C#N)c2nc3ccccc3c(=O)[nH]2)cc1,-14.1%
19,CCc1ccc2c(c1)c(=O)c(C(=O)c1ccc(C)cc1)cn2CC(=O)Nc1ccc2c(c1)OCCO2,21.5%
20,Cc1c(CCC(=O)NCCc2ccccc2F)c(=O)oc2cc(O)ccc12,10.3%
21,CCOc1ccc(NC(=O)NCCCN2CCN(c3ccc(OC)cc3)CC2)cc1,18.1%
22,O=C(c1ccc(CSc2nc3ccncc3n2Cc2ccccc2F)cc1)N1CCCCC1,1.32%
23,CCOc1ccccc1Nc1sc(C(=O)c2ccc(Cl)cc2)c(N)c1C#N,8.8%
